The values below come from the RNAGym collection of RNA variant scans (doi:10.1093/nar/gkz1192).

Read counts are not given, so values of variants with three or more changes are uncertain.

The chains are these.
B1: CPEB3 Ribozyme (parent)
chain: UAACAGGGGGCCACAGCAGAAGCGUUCACGUCGCAGCCCCUGUCAGAUUCUGGUGAAUCUGCGAAUUCUGCUGUAUAUCUC

This data set covers variants of B1. The experiment in a line: self-cleavage, relative activity (ratio to wild type); higher = more cleavage; in vitro, sequencing. An outline of the steps:
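Libraries of CPEB3 self-cleaving ribozyme mutants came from rounds of error-prone PCR and carried barcodes, which DNA sequencing matched to variants. In vitro transcription used T7 RNA polymerase at 37°C for 5 hours, with a further 15 min in DNase I before EDTA stopped the reaction; the ribozymes cleaved during both steps. The RNA was reverse transcribed with template switching and sequenced on Illumina. Relative activity is the cleaved/total read fraction of a variant divided by that of the unmutated ribozyme, averaged over three batches with at least 5 reads.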
Consider UAAUAGGGGGCCACAGCAGAAGCGUUCCCCUCGCAGCCCCAGUCAGAUUCUGGUGAAUCUGCGAAUUCUGCUGUAUAUCUC [C4U A28C G30C U41A], for which the self-cleavage amounted to 0.34.
Next, UAAUAGGGGGCCACAGCAGGAGCGUUCACGUCGCAGCCCCUGUCAGAUUCUGGUGGAUCUGCGAAUUCUGCUGUAUAUCAC [C4U A20G A56G U80A]: 1.09; UAAUAGGGGGCCACAGCAGAAGCGUUCGCGUCGCAGCCCCUGUCAGAUUCUGGUGAAUCUGCGAAUUCUGCUGUAUGUCCC [C4U A28G A77G U80C]: 0.8; UAAUAGGGGGCCACAGCAGAAGCGUUCUCGUCGCAGCCCCUGUCAGAUUCUGGUGAAUCUGCGAAUCCCGCUGUAUACCUC [C4U A28U U67C U69C U78C]: 0.22.
Next, UAAUAGGGGGCCACAGCGGAAGCGUUCACGUCGCAGCCCCUGUCAGAUUCUGGUGAAUCUGCAAAUUCUGCUGUAUAUCCC [C4U A18G G63A U80C]: 0.82; UAAUAGGGGGCCACAGCCGCAGCGUUCACGUCGCAGCCCCGGCCAGAUUCUGGUGAAUCUGCGUAUUCUGCUGUAUAUCUC [C4U A18C A20C U41G U43C A64U]: 0.05; UAAUAGGGGGCCACAGCAGAGGCGUUCACGUCGCAGCCCCUGUCAGAUUCCGGUGAAUCUGCGAAUUCUGCUGUAUAUCUC [C4U A21G U51C]: 1.03.
Next, UAAUAGGGGGGCACAGCGGAAGCGUUCACGUCGCAGCCCCAGUCAGAAUCUGGUGAAUCUGCGAAUUCUGCUGUAUAUCUC [C4U C11G A18G U41A U48A]: 0.08.
With UAAUAGGGGGCCACAGCAGAAGCGUUCUCGUCGCAGCCCCCGUCAGAUUCUGGUGGAUCUGCGAAUUCUGUUGUAUACCUC [C4U A28U U41C A56G C71U U78C], the self-cleavage turned out to be 0.5.
As for UAAUAGGGGGCCUCAGCAGAAGCGUUCAGGUCGCAGCCCUUGUCGGAUUCUGGUGAAUCCGCGAAUUCUGCUGUAUAUCAC [C4U A13U C29G C40U A45G U60C U80A], the self-cleavage was 0.17.
As for UAAUAGGGGGCCACGACAGAAGCGUUCACGUCGCAGCCCCUGUCAGAUUCUGGUGAAUCUGCGAAUUCUGCUGUAUAUCUC [C4U A15G G16A], the self-cleavage was determined as 0.41.
The figure for UAAUAGGGGGCCACCGCAGAAGCGUUCACGUCGCAGCCCCUGCCAGAUUCUGGUGAAUCUGCGAAUUCUGCCGUACAUCUC [C4U A15C U43C U72C U76C] is 0.98.
Next, UAAUAGGGGGCCACAGCAGAGGCGUUCACGUCGCAGCCCCUGACAGAUUCUGGUGAAUCUGCGAAUUCUGCGGUAUAUCUC [C4U A21G U43A U72G]: 0.5; UAAUAGGGGGCCACAGCAGAAGCGUUCACGUCGCAGCCCCUGUCAGAUUCUGGUGGAUCUGCGAAUUCUGCCGUAUAUCUC [C4U A56G U72C]: 0.93; UAAUAGGGGGCCACAGCAGAAGCGUUCACGUCGCAGCCCCUGUCAGAUUCUGGUGAUUCUGCGAAUUCUGCUGCAAAUCUC [C4U A57U U74C U76A]: 1.12.
As for UAAUAGGGGGGCACAGCAGAAGCGUUUACGUCGCAGCCCCUGUCGGAUUCUGGUGAAUCUGCGAAUUCUGCUGUAUAUCUC [C4U C11G C27U A45G], the self-cleavage was found to be 0.3.
Consider UAAUAGGGGGCCACAGCAGGAGCGUUCACGUCGCGGCCCCUGUCGGAUUCUGGUGGAUCUUCGAAUUCUGCUGUAUAUCUC [C4U A20G A35G A45G A56G G61U], for which the self-cleavage was 0.5.
Next, UAAUAGGGGGCCUCAGCAGAAGCGUUCACGUCGCAGCCCCUGUCGGAUUCUGGCGAAUCUGCGAAUUCUGCUGUAUAUCUC [C4U A13U A45G U54C]: 1.23.
In the case of UAAUAGGGGGCCUCAGCAGAGGCGUUCACGUCGCAACCCCUGUCAGAUUCUGGUGAAUCUGCGAAUUCUGCUGUAUAUCUC [C4U A13U A21G G36A], the self-cleavage was 0.25.
Next, UAAUAGGGGGCCACAGCAGAGGCGUUCACGUCGCAGCCCCUGUCAGAUUCUGGUGAAUCCGCGAAUUCUGCUGUAUAUCUC [C4U A21G U60C]: 0.24; UAAUAGGGGGCCACAGCAGUAGCGUUCACGUCGCGGCCCCUGUCUGAUUCUGGUGAAUCUGCGAAUUCUGCUGUAUACCUC [C4U A20U A35G A45U U78C]: 0.36; UAAUAGGGGGCCACUGCAGAAGCGUUCAUGUCGCAGCCCCUGUCAGAUUCUGGUGAAUCUGCGAAUUCAGCUGUAUAUCUC [C4U A15U C29U U69A]: 0.17.
Next, UAAUAGGGGGCCACAGCAGAGGCGUUCACGUCGCAGCCCCUGUCAGAUUCUGGUGAAUCUGCGAAUUCUGCUGUAUAUCAC [C4U A21G U80A]: 1.18; UAAUAGGGGGCCACAGCAGAUGCGUUCACGUCGCAGCGCCUGUCAGAUCCUGGUGAAUCUGCGAAUUCUGCUGUAUAUCUC [C4U A21U C38G U49C]: 0.19; UAAUAGGGGGCCACAGCAGAUGCGCUCACGUCGCAGCCCCUGUCAGAUUCUGGUGAAUCUGCGAAUUCUGCUGUAUAUCUC [C4U A21U U25C]: 0.12.
Next, UAAUAGGGGGGCACGGCAGAAGCGUUCACGUCGCAGCCCCUGUCAGAUCCUGGUGAAUCUGCGAAUUCUGCUGUAUAUCUC [C4U C11G A15G U49C]: 0.12; UAAUAGGGGGUCACAGCAUAAGCGUUCACAUCGCAGCCCCCGUCAGAUUCUGGUGAAUCUGCGAUUUCUGCUGUAUAUAUC [C4U C11U G19U G30A U41C A65U C79A]: 0.04; UAAUAGGGGGCCUCAGCAGUAGCGUUCACGUCGCAGCCCCUGCGAGAUUCUGGUGAGUCUGCGAAUUCUGCUGUAUAUCUC [C4U A13U A20U U43C C44G A57G]: 0.12.
Regarding UAAUAGGGGGCCACAGCAGAAGCGUUCACGUCGCAGCCCCUGUCAGAUUCUGGUGAGUCUGCUAAUUCUGCAGUAUAUCUC [C4U A57G G63U U72A], the self-cleavage was 1.23.
UAAUAGGGGGCCACGGCAGAAGCGUCCACGUCGCAGCCCCUGUCAGAUUCUGGUGAAUCUGCGAAUUCUGCUGUAUAUCUC [C4U A15G U26C]: the self-cleavage amounted to 0.89.
The figure for UAAUAGGGGGGCACAGCAGAAGCGUCCACGUCGCAGCCCCUGUCAGGUUCCGGUGAAUCUGCGAAUUCUGCUGUACAUCUC [C4U C11G U26C A47G U51C U76C] is 0.23; for UAAUAGGGGGCCACAGCAGAAGCGUUCACGUCGCAGCCCCUGUCAGAUUCUGGUGAGUCUGCGAAUUCUGCCGUAUAUCUC [C4U A57G U72C] it is 1.07; for UAAUAGGGGGGCACAGCAGAAGCGUCCACGUCGCAGCCCCUGUCUGAUUCUGGUGAAUCUGCGAAUUCUGCUGUAUGUCUC [C4U C11G U26C A45U A77G] it is 0.05.
In the case of UAAUAGGGGGCCACAGCAGGAGCGUUCACGUCGCGGCCCCUGUCACAUUCUGGUGAAUCCGCGAAUUCUGCUGUAUAUCUC [C4U A20G A35G G46C U60C], the self-cleavage is 0.15.
